# Data reported in a collection of fitness landscapes (doi:10.1126/science.1257360).
# Some of the results follow.
# B1: PhoQ; a variant is named by its letters at X, in order, P23837 (parent)
# chain: MKKLLRLFFPLSLRVRFLLATAAVVLVLSLAYGMVALIGYSVSFDKTTFRLLRGESNLFYTLAKWENNKLHVELPENIDKQSPTMTLIYDENGQLLWAQRDVPWLMKMIQPDWLKSNGFHEIEADVNDTSLLLSGDHSIQQQLQEVREDDDDAEMTHSVAVNVYPATSRMPKLTIVVVDTIPVELKSSYMVWSWFIYVLSANLLLVIPLLWVAAWWSLRPIEALAKEVRELEEHNRELLNPATTRELTSLVRNLNRLLKSERERYDKYRTTLTDLTHSLKTPLXXLQXXLRSLRSEKMSVSDAEPVMLEQISRISQQIGYYLHRASMRGGTLLSRELHPVAPLLDNLTSALNKVYQRKGVNISLDISPEISFVGEQNDFVEVMGNVLDNACKYCLEFVEISARQTDEHLYIVVEDDGPGIPLSKREVIFDRGQRVDTLRPGQGVGLAVAREITEQYEGKIVAGESMLGGARMEVIFGRQHSAPKDE
# Variants of: B1
# Test: enrichment ratio after two sorts for PhoP signalling (ratio (wild type AVST 3.29)); higher = more functional
# Settings: with PhoP (E. coli)
row,Variant,enrichment ratio
1,SPIC,≤ 0.25
2,FQVM,3.44
3,PREP,≤ 0.25
4,HNNH,≤ 0.25
5,YSED,≤ 0.25
6,AQMV,3.92
7,MPSY,≤ 0.25
8,RGAQ,≤ 0.25
9,RYWM,≤ 0.25
10,KVMW,≤ 0.25
11,GPTN,≤ 0.25
12,PCWP,≤ 0.25
13,SILF,0.295
14,QHCF,≤ 0.25
15,DHWD,≤ 0.25
16,LICR,≤ 0.25
17,TLFH,≤ 0.25
18,KCAQ,≤ 0.25
19,AHLS,≤ 0.25
20,WSHP,≤ 0.25
21,DYAV,≤ 0.25
22,QDWD,≤ 0.25
23,YAFK,≤ 0.25
24,EYTH,≤ 0.25

row,Variant,enrichment ratio
1,LKAD,≤ 0.25
2,AFCK,≤ 0.25
3,PNPG,≤ 0.25
4,ITDR,≤ 0.25
5,MDDH,≤ 0.25
6,HFMM,≤ 0.25
7,FYLL,≤ 0.25
8,TCNM,1.24
9,KPPH,≤ 0.25
10,IFRQ,≤ 0.25
11,NFHD,≤ 0.25
12,VGEI,≤ 0.25
13,QEEF,≤ 0.25
14,KIKC,≤ 0.25
15,TWGH,≤ 0.25
16,LSVC,≤ 0.25
17,VGPD,≤ 0.25
18,EGKD,≤ 0.25
19,VRVF,≤ 0.25
20,HSPA,≤ 0.25
21,YYRL,≤ 0.25
22,AWPI,≤ 0.25
23,FKLE,≤ 0.25
24,KPRC,≤ 0.25

row,Variant,enrichment ratio
1,DTYF,≤ 0.25
2,LETK,≤ 0.25
3,VKYH,≤ 0.25
4,VALY,0.301
5,GMYD,≤ 0.25
6,QELF,≤ 0.25
7,MFIC,≤ 0.25
8,GLAQ,≤ 0.25
9,GEFY,≤ 0.25
10,SGQN,≤ 0.25
11,YFLE,≤ 0.25
12,YTTF,≤ 0.25
13,NYLP,≤ 0.25
14,QTSA,≤ 0.25
15,FTFQ,1.72
16,KFVE,≤ 0.25
17,TTDT,≤ 0.25
18,SHNG,≤ 0.25
19,NHAD,≤ 0.25
20,FMQQ,≤ 0.25
21,PEQL,≤ 0.25
22,DCNF,≤ 0.25
23,HQYI,≤ 0.25
24,RDML,≤ 0.25

row,Variant,enrichment ratio
1,IKAC,≤ 0.25
2,HATG,≤ 0.25
3,HGMY,≤ 0.25
4,HWAP,≤ 0.25
5,EQDY,≤ 0.25
6,RFYG,≤ 0.25
7,HTGK,≤ 0.25
8,KNTP,≤ 0.25
9,ELCS,≤ 0.25
10,KNIG,≤ 0.25
11,MGLY,2.79
12,YGRF,≤ 0.25
13,IKGR,≤ 0.25
14,PCQS,≤ 0.25
15,PGYI,≤ 0.25
16,FKQN,≤ 0.25
17,VIKH,≤ 0.25
18,MGRL,≤ 0.25
19,HGWQ,≤ 0.25
20,FMPW,≤ 0.25
21,DIFP,≤ 0.25
22,QVHS,≤ 0.25
23,GVCK,1.77
24,TTPY,≤ 0.25

row,Variant,enrichment ratio
1,YAQY,≤ 0.25
2,AWPK,≤ 0.25
3,TREN,≤ 0.25
4,WPRW,≤ 0.25
5,YWHS,≤ 0.25
6,PVQI,≤ 0.25
7,IKRV,≤ 0.25
8,VAYI,≤ 0.25
9,DGNW,≤ 0.25
10,FSSN,≤ 0.25
11,IEFY,≤ 0.25
12,WYTM,≤ 0.25
13,KRSM,≤ 0.25
14,YGAA,≤ 0.25
15,LFIY,≤ 0.25
16,KDGA,≤ 0.25
17,MQTF,≤ 0.25
18,WQNM,≤ 0.25
19,PALA,≤ 0.25
20,DCKH,≤ 0.25
21,MNPM,≤ 0.25
22,IQFC,≤ 0.25
23,LPEN,≤ 0.25
24,IYEF,≤ 0.25

row,Variant,enrichment ratio
1,SIHV,≤ 0.25
2,PIGG,≤ 0.25
3,PMYD,≤ 0.25
4,SRYD,≤ 0.25
5,EEFR,≤ 0.25
6,FGVE,≤ 0.25
7,IMVG,≤ 0.25
8,DNEM,≤ 0.25
9,PPVA,≤ 0.25
10,SQCG,24.3
11,LNWP,≤ 0.25
12,WKMD,≤ 0.25
13,TKAK,≤ 0.25
14,LANT,≤ 0.25
15,KSGK,≤ 0.25
16,LRWR,≤ 0.25
17,SWNH,≤ 0.25
18,TGWG,5.4
19,NYYP,≤ 0.25
20,YKAA,≤ 0.25
21,WHGD,≤ 0.25
22,FLRV,≤ 0.25
23,MQWV,≤ 0.25
24,DYQQ,≤ 0.25

row,Variant,enrichment ratio
1,YFRM,≤ 0.25
2,AHFG,≤ 0.25
3,AMKI,≤ 0.25
4,NRRW,≤ 0.25
5,KVAT,≤ 0.25
6,NWAE,≤ 0.25
7,RFNK,≤ 0.25
8,IQRP,≤ 0.25
9,FSFG,≤ 0.25
10,YFPV,≤ 0.25
11,LMHF,≤ 0.25
12,HFRK,≤ 0.25
13,AMGT,≤ 0.25
14,GQHH,≤ 0.25
15,LRMR,≤ 0.25
16,MHPS,≤ 0.25
17,KVAQ,≤ 0.25
18,WFDY,≤ 0.25
19,PSGK,≤ 0.25
20,APQE,≤ 0.25
21,FLIF,≤ 0.25
22,NRVR,≤ 0.25
23,KPMS,≤ 0.25
24,CSSS,≤ 0.25

row,Variant,enrichment ratio
1,SKSR,≤ 0.25
2,QRDM,≤ 0.25
3,SSQG,6.44
4,EHDN,≤ 0.25
5,QINA,≤ 0.25
6,MKVH,≤ 0.25
7,KPNL,≤ 0.25
8,SELM,15.6
9,PHLK,≤ 0.25
10,REME,≤ 0.25
11,WKSY,≤ 0.25
12,YWDG,≤ 0.25
13,PTYW,≤ 0.25
14,QKSD,≤ 0.25
15,LNGK,≤ 0.25
16,TWWF,≤ 0.25
17,VIHY,≤ 0.25
18,ESMS,≤ 0.25
19,NVFE,≤ 0.25
20,IPKA,≤ 0.25
21,RSRL,≤ 0.25
22,KFVC,≤ 0.25
23,DRTR,≤ 0.25
24,EDDW,≤ 0.25

row,Variant,enrichment ratio
1,SWKG,≤ 0.25
2,YDEC,≤ 0.25
3,WDAT,≤ 0.25
4,QPLI,≤ 0.25
5,TMTN,13.4
6,IMLL,≤ 0.25
7,NMHI,≤ 0.25
8,LMDK,≤ 0.25
9,TYKH,≤ 0.25
10,THPD,≤ 0.25
11,FRES,≤ 0.25
12,TKLY,16.4
13,SYMF,≤ 0.25
14,YDGV,≤ 0.25
15,LYML,≤ 0.25
16,WMEF,≤ 0.25
17,CDFY,≤ 0.25
18,VGCW,≤ 0.25
19,WHFK,≤ 0.25
20,PAMH,≤ 0.25
21,AAIC,≤ 0.25
22,EVAW,≤ 0.25
23,HPRI,≤ 0.25
24,PLQS,≤ 0.25

row,Variant,enrichment ratio
1,DEID,≤ 0.25
2,YKWD,≤ 0.25
3,YYGF,≤ 0.25
4,RDIP,≤ 0.25
5,RCQM,≤ 0.25
6,DNQG,≤ 0.25
7,HDIP,≤ 0.25
8,MCFH,≤ 0.25
9,PLDR,≤ 0.25
10,FMYG,≤ 0.25
11,DRAR,≤ 0.25
12,VSAC,≤ 0.25
13,MVAR,1.57
14,KGYS,≤ 0.25
15,MRTW,≤ 0.25
16,TTFS,0.795
17,WMPL,≤ 0.25
18,IQYL,≤ 0.25
19,RVED,≤ 0.25
20,DQWP,≤ 0.25
21,ERMN,≤ 0.25
22,KSSE,≤ 0.25
23,CNSS,≤ 0.25
24,TRHR,≤ 0.25

row,Variant,enrichment ratio
1,HCKK,≤ 0.25
2,PSTW,≤ 0.25
3,PMEA,≤ 0.25
4,GKQL,≤ 0.25
5,IPIQ,≤ 0.25
6,AKGS,≤ 0.25
7,TCAQ,15.5
8,FPPT,≤ 0.25
9,EHAP,≤ 0.25
10,EMLL,≤ 0.25
11,ANQM,≤ 0.25
12,VTTP,≤ 0.25
13,NDLP,≤ 0.25
14,VLVD,≤ 0.25
15,MCWM,16.4
16,KIFK,≤ 0.25
17,IKRS,≤ 0.25
18,RCNG,≤ 0.25
19,MEVY,6.01
20,DRQI,≤ 0.25
21,VCKI,≤ 0.25
22,LHVS,≤ 0.25
23,NDSH,≤ 0.25
24,LYQK,≤ 0.25

row,Variant,enrichment ratio
1,WLFL,≤ 0.25
2,IKNG,≤ 0.25
3,LVKG,≤ 0.25
4,LDMI,≤ 0.25
5,FKGI,≤ 0.25
6,WFWW,≤ 0.25
7,IQMY,≤ 0.25
8,LNKW,≤ 0.25
9,TKNH,11.4
10,GQWF,≤ 0.25
11,SRFH,≤ 0.25
12,HEGS,≤ 0.25
13,WMIL,≤ 0.25
14,NEFP,≤ 0.25
15,PYNG,≤ 0.25
16,IEIC,≤ 0.25
17,NHIE,≤ 0.25
18,WKRK,≤ 0.25
19,YQAL,≤ 0.25
20,NGYK,≤ 0.25
21,GEFH,≤ 0.25
22,SQVD,≤ 0.25
23,LGSE,≤ 0.25
24,QYDI,≤ 0.25

row,Variant,enrichment ratio
1,ITAY,≤ 0.25
2,DPAK,≤ 0.25
3,HHRL,≤ 0.25
4,HIIV,≤ 0.25
5,YWIF,≤ 0.25
6,YSNF,≤ 0.25
7,FTWS,≤ 0.25
8,FIPV,≤ 0.25
9,WGRW,≤ 0.25
10,AIGM,8.76
11,KLWP,≤ 0.25
12,MSFV,6.53
13,PSPE,≤ 0.25
14,SVTP,≤ 0.25
15,NWIR,≤ 0.25
16,LQEH,≤ 0.25
17,PNGK,≤ 0.25
18,HEWW,≤ 0.25
